In PubChem BioAssay AID1508624 (National Center for Advancing Translational Sciences (NCATS), 2021):
The campaign covered roughly 48,000 compounds. About 120 (0.25%) were called active. About 4% were inconclusive and are not listed. Calls come from the whole dose curve; as a rule, active = well fitted activation curve with a large enough effect; inconclusive = small, poorly fitted or top-dose-only effect, or another doubt; inactive = no such curve, though single readings can be large or run the other way. Some of the results follow.

Test: Primary qHTS for Identification of Small Molecule Activators of Huntingtin-Antisense Promoter Activity; note: nearly all actives have a fitted effect of over 55% in size
Conditions: HEK293 HTT-AS promoter firefly luciferase reporter (activity 0% = vehicle and -100% = no light), 24 h; series mostly up to 57.5 µM; activity change, positive = activation: at the top concentration
Procedure, shortened: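 Firefly luciferase signal from promoter-reporter HEK293 cells was scaled between vehicle (0%) and zero RLU (-100%). Compounds were tested at final concentrations of up to 57.5 uM over 24 h at 37 degrees C. PTC124 at 50 uM final served as control inhibitor.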

Activity change, positive = activation, inactive:
CCOc1ccc(NC(=O)C(=O)c2cc(C)n(-c3cc(C)cc(C)c3)c2C)cc1 4.37%, Cc1ccc(NC(=O)C2CCCN(S(=O)(=O)c3ccc4c(c3)oc(=O)n4C)C2)cc1Cl (stereo unspecified) -21.1%, COc1ccc(-c2cc(C(=O)NCCc3ccccc3)c3c(-c4ccccc4)[nH]nc3n2)cc1OC -0.275%, Cc1ccc(-n2nc(CO)c(C(=O)NC(C)CCCc3ccccc3)n2)cc1 (stereo unspecified) -28.6%, COc1ccc(NC(=O)c2c(NCc3sccc3C)sc3c2CCCC3)c(OC)c1 -13.8%, CCc1nn2c(=O)cc(COC(=O)CNC(=O)COc3ccc(C)cc3)nc2s1 0.607%, CCC(=O)N1CCc2cc(S(=O)(=O)CCC(=O)N3CCN(c4ccc(Cl)cc4)CC3)ccc21 -44%, CC(C)CC(NS(=O)(=O)c1ccc2c(c1)oc(=O)n2C)C(=O)NCc1ccccc1Cl (stereo unspecified) -14.7%, CCCOc1ccc(CN(C(=O)Cc2coc3ccc(CC)cc23)C2CCS(=O)(=O)C2)cc1 (stereo unspecified) -26.2%, CCCn1c(=O)sc2cc(NC(=O)c3ccc(OC)c(Br)c3)ccc21 -29.5%, Cc1ccc(NC(=O)CN2CCN(S(=O)(=O)c3ccc(C(C)C)cc3)CC2)cc1F -24.7%, COc1ccc(Nc2nc(N)nc(N)c2S(=O)(=O)c2ccccc2)cc1 -26.1%, Cc1cn(C)c(CC(=O)N2CCN(c3cccc(Cl)c3)CC2)c1C(=O)O -9.46%, CCOc1ccc(OCC)c(Nc2ccc3cc(S(=O)(=O)N4CCCC4)ccc3n2)c1 -13.9%, CCC1=Nc2cc(C(=O)NC3CCC(C)CC3)ccc2Sc2ccc(C)cc21 (stereo unspecified) -35.8%, CCC1CN(C(=O)N2CCC(C(=O)NCc3cccc(OC)c3OC)CC2)c2cc(C)ccc2O1 (stereo unspecified) -24.9%, COc1ccccc1NC(=O)c1sc2nc(C)c(C(=O)Nc3ccc(C)cc3C)c(-c3ccco3)c2c1N -13.3%, O=C(C1CCCN(S(=O)(=O)c2cccc3nsnc23)C1)N1CCN(c2ccccc2F)CC1 (stereo unspecified) -35.2%, CCC(C)NC(=O)CSc1nc2n[nH]c(C)c2c(=N)n1-c1cc(Cl)ccc1C (stereo unspecified) -34.2%, COc1cccc(-c2noc(C3CC(=O)N(c4ccc(F)cc4)C3)n2)c1OC (stereo unspecified) -1.93%, COc1ccccc1CNC(=O)c1cc2sccc2n1Cc1ccc(Cl)cc1 -18.2%, COc1ccc(NC(=O)CSc2ccc3nc(-c4ccccc4)cn3n2)c(OC)c1 -88.4%, CCc1ccc(NC(=O)CCn2c(=O)c3cccn3c3ccccc32)cc1 -28%, Cc1ccccc1NC(=O)CSc1nc2ccc(NC(=O)c3cccs3)cc2s1 -7.68%, Cc1ccc(NC(=O)c2ccc3[nH]c(C)cc(=O)c3c2)cc1 -9.36%, CC(C)(O)Cn1c(NC(=O)c2ccc(-c3cn[nH]c3)s2)nc2cc(CN3CCOCC3)ccc21 -42.7%
